# At least one peptide structure holds a part that was inferred or is arguable (an end, a ring closure or a residue). Peptide text beside a SMILES is read from it.
# System: human monocytes
# Test: Monocyte chemotaxis, modified Boyden chamber technique
# Assay type: cell-based
# Conditions: for monocyte chemotactic activity (in words): modified Boyden chamber
# Method: Chemotaxis was measured using the modified Boyden chamber technique (Snyderman et al.). The leading front method (Zigmond et al.) was used to assess migration of monocytes and lymphocytes through a 8 μm filter (Millipore Corporation, Bedford, Mass.). PMN chemotaxis was measured using a 3 μm filter (Millipore). The purified CAP37 protein (Example 1) used in chemotaxis assays were endotoxin-free as determined by the Limulus Amoebocyte Lysate Assay (Whittaker Bioproducts, Inc., Walkersville, Md.). The dilutions of CAP37 and N-formyl-methionyl-leucyl-phenylalanine (FMLP) were made in Geys buffer (Gibco) containing 2% endotoxin-free bovine serum albumin (BSA). Geys buffer containing 2% BSA served as the negative control, and a […] solution of FMLP as the positive control.
# The chambers were incubated in a humidified atmosphere (6.2% CO2) for 2 hours when testing monocytes and lymphocytes, and for 30 minutes when testing PMNs. The filters were then removed and processed as previously described (Snyderman et al.). The cells were viewed using oil immersion and the distance the cells had migrated into the filter was determined over five different fields on the same slide (Zigmond et al.). Triplicate assays were performed for each experimental point.
# The three peptides were tested for chemotactic activity towards monocytes using the modified Boyden Chamber technique described in Example 2. The monocyte chemotactic activity of each peptide fragment at concentrations ranging from 10^-7 to 10^-13 M was compared with Geys buffer (negative control), FMLP 10^-8 M (positive control) and purified CAP37 10^-9 M (positive control). […] The effect of peptide 1 on monocyte chemotaxis is illustrated in Table 2 while the effect of peptide 3 on monocyte chemotaxis is illustrated in Table 3.
smiles,measurement,setting,value
CC[C@H](C)[C@H](NC(=O)[C@@H](NC(=O)[C@@H](NC(=O)[C@H](CO)NC(=O)[C@H](CO)NC(=O)[C@@H](NC(=O)[C@H](CC(C)C)NC(=O)[C@H](CC(N)=O)NC(=O)[C@H](C)NC(=O)[C@H](CCC(=O)O)NC(=O)[C@H](CCCNC(=N)N)NC(=O)[C@H](CC(=O)O)NC(=O)[C@@H](N)CC(C)C)[C@@H](C)O)C(C)C)[C@@H](C)O)C(=O)N[C@@H](CC(C)C)C(=O)N1CCC[C@H]1C(=O)N[C@@H](CC(C)C)C(=O)N1CCC[C@H]1C(=O)N[C@@H](CC(C)C)C(=O)N[C@@H](CCC(N)=O)C(=O)N[C@@H](CC(N)=O)C(=O)N[C@@H](C)C(=O)N[C@H](C(=O)N[C@H](C(=O)N[C@@H](CCC(=O)O)C(=O)N[C@@H](C)C(=O)NCC(=O)N[C@H](C(=O)N[C@@H](CCCNC(=N)N)C(=O)O)[C@@H](C)O)C(C)C)[C@@H](C)O [95-122aa] (H-LDREANLTSSVTILPLPLQNATVEAGTR-OH),monocyte chemotactic activity (in words),,virtually destroyed the chemotactic effect
CC[C@H](C)[C@H](NC(=O)[C@@H](NC(=O)[C@@H](NC(=O)[C@H](CO)NC(=O)[C@H](CO)NC(=O)[C@@H](N)[C@@H](C)O)C(C)C)[C@@H](C)O)C(=O)N[C@@H](CC(C)C)C(=O)N1CCC[C@H]1C(=O)N[C@@H](CC(C)C)C(=O)N1CCC[C@H]1C(=O)N[C@@H](CC(C)C)C(=O)N[C@@H](CCC(N)=O)C(=O)N[C@@H](CC(N)=O)C(=O)N[C@@H](C)C(=O)N[C@H](C(=O)N[C@H](C(=O)N[C@@H](CCC(=O)O)C(=O)N[C@@H](C)C(=O)NCC(=O)N[C@H](C(=O)N[C@@H](CCCNC(=N)N)C(=O)O)[C@@H](C)O)C(C)C)[C@@H](C)O [102-122aa] (H-TSSVTILPLPLQNATVEAGTR-OH),monocyte chemotactic activity relative to the mature CAP37 protein,,two-thirds
CC(C)[C@H](NC(=O)[C@@H](NC(=O)[C@H](C)NC(=O)[C@H](CC(N)=O)NC(=O)[C@@H](N)CCC(N)=O)[C@@H](C)O)C(=O)N[C@@H](CCC(=O)O)C(=O)N[C@@H](C)C(=O)NCC(=O)N[C@H](C(=O)N[C@@H](CCCNC(=N)N)C(=O)O)[C@@H](C)O [113-122aa] (H-QNATVEAGTR-OH),monocyte chemotactic activity (in words),,"reduced the chemotactic activity, although this fragment still possessed reasonable activity"
"CC(C)[C@H](NC(=O)[C@@H](NC(=O)[C@H](CO)NC(=O)[C@@H](NC(=O)CNC(=O)[C@@H]1CCCN1C(=O)[C@H](CC(N)=O)NC(=O)[C@H](CCC(N)=O)NC(=O)[C@H](CO)NC(=O)[C@H](CCC(N)=O)NC(=O)[C@@H](N)Cc1ccccc1)C(C)C)[C@@H](C)O)C(=O)O [Peptide 1, F-Q-S-Q-N-P-G-V-S-T-V] (H-FQSQNPGVSTV-OH)",concentration at which significant chemotaxis occurs,,10^-10 M
same,Distance migrated in μm,"Table 2, chemoattractant conc. 10^-7 M",57.2 μm
same,Distance migrated in μm,"Table 2, chemoattractant conc. 10^-8 M",51.5 μm
same,Distance migrated in μm,"Table 2, chemoattractant conc. 10^-9 M",57.7 μm
same,Distance migrated in μm,"Table 2, chemoattractant conc. 10^-10 M",63.5 μm
same,Distance migrated in μm,"Table 2, chemoattractant conc. 10^-11 M",51.3 μm
same,Distance migrated in μm,"Table 2, chemoattractant conc. 10^-12 M",50.2 μm
same,monocyte chemotactic activity (in words),,showed chemotactic activity
"CC[C@H](C)[C@H](NC(=O)[C@@H](N)CO)C(=O)N[C@@H](CO)C(=O)N[C@@H](CO)C(=O)N[C@@H](CCSC)C(=O)N[C@@H](CO)C(=O)N[C@@H](CCC(=O)O)C(=O)N[C@@H](CC(N)=O)C(=O)NCC(=O)O [Peptide 2, S-I-S-S-M-S-E-N-G] (H-SISSMSENG-OH)",monocyte chemotactic activity (in words),,did not
"CC(C)C[C@H](NC(=O)[C@H](CCCNC(=N)N)NC(=O)CNC(=O)CNC(=O)[C@H](CO)NC(=O)[C@H](Cc1c[nH]cn1)NC(=O)[C@H](CCC(N)=O)NC(=O)[C@@H](N)CO)C(=O)N[C@@H](CO)C(=O)N[C@@H](CCCNC(=N)N)C(=O)N[C@@H](Cc1ccccc1)C(=O)N1CCC[C@H]1C(=O)N[C@@H](CCCNC(=N)N)C(=O)N[C@@H](Cc1ccccc1)C(=O)O [Peptide 3, S-Q-H-S-G-G-R-L-S-R-F-P-R-F] (H-SQHSGGRLSRFPRF-OH)",concentration at which significant chemotaxis occurs,,10^-10 M
same,Distance migrated in μm,"Table 3, chemoattractant conc. 10^-8 M",46.5 μm
same,Distance migrated in μm,"Table 3, chemoattractant conc. 10^-9 M",52.0 μm
same,Distance migrated in μm,"Table 3, chemoattractant conc. 10^-10 M",66.6 μm
same,Distance migrated in μm,"Table 3, chemoattractant conc. 10^-11 M",52.8 μm
same,Distance migrated in μm,"Table 3, chemoattractant conc. 10^-12 M",50.5 μm
same,Distance migrated in μm,"Table 3, chemoattractant conc. 10^-13 M",50.2 μm
same,monocyte chemotactic activity (in words),,showed chemotactic activity
